In the supplement of paper PMC12462457 one finds cell count data, which are given here for 31 compounds.

SMILES strings stand for the structures. Where a name gives a salt, the structure may show the parent alone. ± gives the standard deviation of the averaged measurements. This is one part of the list.

The test system of this assay is OVCAR8. Kind of assay: cell count relative to DMSO vehicle (fold change); OVCAR8 is a high-grade serous ovarian cancer line and CX-5461 an RNA polymerase I inhibitor; higher = more surviving senescent cells (less killing). The settings on record: senescence inducer: CX-5461 3 µM 48 h, then 6 d recovery (CX senescent), exposure time 24 h.

With `N#Cc1c(N2CCCC2)nc(N)c2c(N)nc(N3CCCC3)cc12`, the cell count is 1.14 ± 0.16 (compound dose 1 µM) and 1.24 ± 0.27 (compound dose 5 µM).

As to `COC(=O)CC[C@H](NC(=O)[C@H](Cc1c[nH]c2ccccc12)NC(=O)OCc1ccccc1)C(=O)N[C@@H](Cc1cnc[nH]1)C(=O)N[C@@H](CC(=O)OC)C(=O)CF`, the cell count was found to be 1.1 ± 0.15 (compound dose 1 µM) and 1.05 ± 0.16 (compound dose 5 µM).

The compound `Oc1ccc(-c2nc(-c3ccc(F)cc3)c(-c3ccncc3)[nH]2)cc1` displayed a cell count (compound dose 1 µM) of 1.06 ± 0.032 and a cell count (compound dose 5 µM) of 1.01 ± 0.21.

Regarding `Nc1ccc(-c2ccc3ncc4ccc(=O)n(-c5cccc(C(F)(F)F)c5)c4c3c2)cn1` [Torin 2], the cell count was found to be 0.236 ± 0.059 (compound dose 1 µM) and 0.153 ± 0.03 (compound dose 5 µM).

With `COc1c(/C=C/C(=O)c2ccc(O)c(CC=C(C)C)c2)ccc(O)c1O` [Licochalcone D], the cell count by setting is: (compound dose 1 µM) 1.08 ± 0.062; (compound dose 5 µM) 0.927 ± 0.017.

In turn, `CC(C)C[C@H](NC(=O)[C@H](Cc1ccccc1)C[C@@H](O)[C@H](Cc1ccccc1)NC(=O)OC(C)(C)C)C(=O)N[C@@H](Cc1ccccc1)C(N)=O` showed a cell count (compound dose 1 µM) of 1.17 ± 0.1 and a cell count (compound dose 5 µM) of 1.17 ± 0.17.

Turning to `CC[C@H](CC#N)OC(=O)N[C@@H](C)c1cccc(NC(=O)Nc2ccc(-c3cnco3)c(OC)c2)c1`, the cell count reads like this: (compound dose 1 µM) 0.993 ± 0.2; (compound dose 5 µM) 1 ± 0.16.

In turn, `CN1CCC(Nc2nc(Nc3ccc(Oc4ccccc4)cc3)c3c(=O)[nH]cc(Br)c3n2)CC1` had a cell count (compound dose 1 µM) of 1.15 ± 0.18 and a cell count (compound dose 5 µM) of 1.19 ± 0.18.

Take `CC(=O)O[C@H]1C(=O)[C@@]2(C)[C@H]([C@H](OC(=O)c3ccccc3)[C@]3(O)C[C@H](OC(=O)[C@H](O)[C@@H](NC(=O)c4ccccc4)c4ccccc4)C(C)=C1C3(C)C)[C@]1(OC(C)=O)CO[C@@H]1C[C@@H]2O`: the cell count by setting is: (compound dose 1 µM) 1.17 ± 0.11; (compound dose 5 µM) 1.168 ± 0.0085.

The compound `COc1cccc2c1C(=O)c1c(O)c3c(c(O)c1C2=O)C[C@@](O)(C(=O)CO)C[C@@H]3O[C@H]1C[C@H](N)[C@@H](O)[C@H](C)O1` [Epirubicin (hydrochloride)] displayed a cell count (compound dose 1 µM) of 1.22 ± 0.27 and a cell count (compound dose 5 µM) of 0.736 ± 0.013.

`NC(=O)c1ccc(-c2nc(-c3ccccn3)c(-c3ccc4c(c3)OCO4)[nH]2)cc1`: the cell count runs as follows: (compound dose 1 µM) 0.966 ± 0.16; (compound dose 5 µM) 1.03 ± 0.23.

In the case of `CNC(=O)c1ccc2c(c1)ncn2-c1ccc(CC(=O)OC(C)(C)C)cc1`, the cell count runs as follows: (compound dose 1 µM) 0.984 ± 0.19; (compound dose 5 µM) 0.952 ± 0.059.

`CC(C)(C)c1ccc(S(=O)(=O)/C=C/C#N)cc1`: the cell count by setting is: (compound dose 1 µM) 0.744 ± 0.11; (compound dose 5 µM) 0.0645 ± 0.04.

In the case of `COc1ccc2cc(C(C)C(=O)Oc3ccc(C(N)=S)cc3)ccc2c1` (configuration not stated), the cell count by setting is: (compound dose 1 µM) 1.09 ± 0.23; (compound dose 5 µM) 1.15 ± 0.21.

For `COc1ccc(-c2nc(-c3cc(C(F)(F)F)cc(C(F)(F)F)c3)n(Cc3ccc(C(N)=O)cc3)c2-c2ccc(OC)cc2)cc1` [Apoptozole], the cell count is, setting by setting: (compound dose 1 µM) 1.04 ± 0.018; (compound dose 5 µM) 1.15 ± 0.066.

In the case of `Cc1ccc2ccc(C(Nc3ccccc3)c3ccccc3)c(O)c2n1` (configuration not stated), the cell count runs as follows: (compound dose 1 µM) 1.2 ± 0.22; (compound dose 5 µM) 1.16 ± 0.21.

Take `C[C@H]1[C@H](C)CC[C@]2(C(=O)O[C@@H]3O[C@H](CO[C@@H]4O[C@H](CO)[C@@H](O[C@@H]5O[C@H](C)[C@H](O)[C@@H](O)[C@H]5O)[C@H](O)[C@H]4O)[C@@H](O)[C@H](O)[C@H]3O)CC[C@]3(C)C(=CC[C@@H]4[C@@]5(C)C[C@@H](O)[C@H](O)[C@@](C)(CO)[C@@H]5CC[C@]43C)[C@H]12` [Asiaticoside]: the cell count reads like this: (compound dose 1 µM) 1.16 ± 0.074; (compound dose 5 µM) 1.03 ± 0.18.

Regarding `CCOC(=O)[C@@H](N)CCC(=O)N[C@@H](CSCc1ccccc1)C(=O)N[C@@H](C(=O)OCC)c1ccccc1` [Ezatiostat], the cell count is, setting by setting: (compound dose 1 µM) 1.14 ± 0.26; (compound dose 5 µM) 0.998 ± 0.18.

As to `Cc1sc2c(c1C)C(c1ccc(Cl)cc1)=N[C@@H](CC(=O)NCCCCCCCCNC(=O)COc1cccc3c1C(=O)N(C1CCC(=O)NC1=O)C3=O)c1nnc(C)n1-2` (some centres not stated), the cell count reads like this: (compound dose 1 µM) 1.14 ± 0.2; (compound dose 5 µM) 1.1 ± 0.1.

Take `CC(=O)N[C@@H](C)C(=O)N[C@@H](CO)C(=O)NC(C)(C)C(=O)N[C@@H](CC(C)C)C(=O)N[C@@H](CCCN=C(N)N)C(=O)N[C@@H](CCCCN)C(=O)N[C@@H](CC(C)C)C(=O)NC(C)(C)C(=O)N[C@@H](CCCCN)C(=O)N[C@@H](CCCN=C(N)N)C(=O)N[C@@H](CC(C)C)C(=O)N[C@@H](CC(C)C)C(N)=O`: the cell count (compound dose 1 µM) stood at 1.13 ± 0.23 and the cell count (compound dose 5 µM) was found to be 0.954 ± 0.089.

Consider `Cn1cc(/C=C2\C(=O)Nc3cccnc32)c2ccccc21`, for which the cell count is, setting by setting: (compound dose 1 µM) 0.93 ± 0.074; (compound dose 5 µM) 1.073 ± 0.0057.

As to `CN1C(=O)C(Cc2c[nH]c3ccccc23)NC1=S` (configuration not stated) [Necrostatin-1], the cell count worked out at 0.987 ± 0.18 (compound dose 1 µM) and 0.977 ± 0.26 (compound dose 5 µM).

Regarding `CCC[C@H](N[C@H]1CCc2cc(F)cc(F)c2C1)C(=O)Nc1cn(C(C)(C)CNCC(C)(C)C)cn1` [Nirogacestat], the cell count stood at 1.18 ± 0.07 (compound dose 1 µM) and 1.21 ± 0.071 (compound dose 5 µM).

Turning to `Cc1cc2c(s1)Nc1ccccc1N=C2N1CCN(C)CC1`, the cell count was 1.19 ± 0.096 (compound dose 1 µM) and 1.15 ± 0.031 (compound dose 5 µM).

For the compound `CCN(CC)CCOc1ccc(Nc2ncc3cc(-c4c(Cl)cccc4Cl)c(=O)n(C)c3n2)cc1`, the cell count runs as follows: (compound dose 1 µM) 0.0835 ± 0.0035; (compound dose 5 µM) 0.038 ± 0.014.

In the case of `CCN1CCN(C(c2ccc(C(F)(F)F)cc2)c2ccc3cccnc3c2O)CC1` (configuration not stated), the cell count reads like this: (compound dose 1 µM) 1.19 ± 0.058; (compound dose 5 µM) 1.35 ± 0.021.

Turning to `O=C(O)c1ccccc1O`, the cell count reads like this: (compound dose 1 µM) 1.04 ± 0.19; (compound dose 5 µM) 1.12 ± 0.16.

In turn, `Cc1c(-c2c(-c3ccc(F)o3)sc3ncnc(O[C@H](Cc4ccccc4OCc4ccnn4CC(F)(F)F)C(=O)O)c23)ccc(OCCN2CCN(C)CC2)c1Cl` returned a cell count (compound dose 1 µM) of 1.12 ± 0.071 and a cell count (compound dose 5 µM) of 1.07 ± 0.047.

In the case of `O=C(O)c1cc(/N=N/c2ccc(S(=O)(=O)Nc3ccccn3)cc2)ccc1O`, the cell count reads like this: (compound dose 1 µM) 1.11 ± 0.23; (compound dose 5 µM) 1.27 ± 0.13.

Take `COc1ccc(C2=N[C@@H](c3ccc(Cl)cc3)[C@@H](c3ccc(Cl)cc3)N2C(=O)N2CCNC(=O)C2)c(OC(C)C)c1` [Nutlin-3a]: the cell count came out at 1.03 ± 0.1 (compound dose 1 µM) and 1.01 ± 0.087 (compound dose 5 µM).

For the compound `CCCSc1ccc2[nH]c(NC(=O)OC)nc2c1`, the cell count by setting is: (compound dose 1 µM) 1.1 ± 0.074; (compound dose 5 µM) 1.07 ± 0.1.
